Assay results taken from the supplement of paper PMC4967469.
A lower IC50 marks a more sensitive line; fits outside the tested doses are given as limits. AUC, from the same fit, is the share of area under the viability curve across the 256-fold dose range: 1 means no effect, lower means more sensitive. For some assays here: The top dose, if marked as inferred, is not printed in the source and was worked back from the curve model. For some assays here: Drugs with an entry number were screened twice under separate entries, and the two screens often disagree.

Assays:
Test in all cases: Viability of human cancer cell lines after 72 h of drug (GDSC screen)
Thapsigargin = compound: C/C=C(/C)C(=O)O[C@H]1C(C)=C2[C@H]([C@@H]1OC(=O)CCCCCCC)[C@@](C)(OC(C)=O)C[C@H](OC(=O)CCC)[C@@]1(O)[C@H]2OC(=O)[C@@]1(C)O [Thapsigargin]; settings: top dose 0.512 µM; top dose inferred
Procedure: (§1)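 Human cancer cell lines in 384-well plates, medium with 10% serum, drug for 72 h over a 256-fold dose range (nine 2-fold or five 4-fold steps up to the top dose). Adherent lines were fixed and stained with the nucleic acid dye Syto60, suspension lines read with resazurin; signal relative to control wells, capped at 0 and 100%. One two-parameter sigmoid per drug and line, fitted in a mixed model over all curves with the slope shared within a line.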

QL-X-138 = compound: C=CC(=O)Nc1cc(-n2c(=O)ccc3cnc4ccc(-c5cn[nH]c5)cc4c32)ccc1C [QL-X-138]; settings: top dose 10.24 µM; top dose inferred
Procedure: as §1

GSK269962A = compound: CCn1c(-c2nonc2N)nc2cnc(Oc3cccc(NC(=O)c4ccc(OCCN5CCOCC5)cc4)c3)cc21 [GSK269962A]; settings: top dose inferred
Procedure: as §1

MPS-1-IN-1 = compound: COc1cc(N2CCC(O)CC2)ccc1Nc1cc(Nc2ccccc2S(=O)(=O)C(C)C)c2cc[nH]c2n1 [MPS-1-IN-1]; settings: top dose 20 µM; top dose inferred
Procedure: as §1

(5Z)-7-Oxozeaenol = compound: COc1cc(O)c2c(c1)/C=C/C[C@H](O)[C@H](O)C(=O)/C=C\C[C@H](C)OC2=O [(5Z)-7-Oxozeaenol]; settings: top dose 10 µM; top dose inferred
Procedure: as §1

CP466722 = compound: COc1cc2ncnc(-n3nc(-c4ccccn4)nc3N)c2cc1OC [CP466722]; settings: top dose 16 µM; top dose inferred
Procedure: as §1

Zibotentan = compound: COc1nc(C)cnc1NS(=O)(=O)c1cccnc1-c1ccc(-c2nnco2)cc1 [Zibotentan]; settings: top dose 20 µM; top dose inferred
Procedure: as §1

ABT-888 = compound: C[C@]1(c2nc3c(C(N)=O)cccc3[nH]2)CCCN1 [ABT-888]; settings: top dose 5 µM; top dose inferred
Procedure: as §1

CMK = compound: Cc1ccc(-c2c(C(=O)CCl)n(CCCO)c3ncnc(N)c23)cc1 [CMK]; settings: top dose 4 µM; top dose inferred
Procedure: as §1

ABT-869 = compound: Cc1ccc(F)c(NC(=O)Nc2ccc(-c3cccc4[nH]nc(N)c34)cc2)c1 [ABT-869]; settings: top dose 1.024 µM; top dose inferred
Procedure: as §1

CHIR-99021 = compound: Cc1cnc(-c2cnc(NCCNc3ccc(C#N)cn3)nc2-c2ccc(Cl)cc2Cl)[nH]1 [CHIR-99021]
Procedure: as §1

Cytarabine = compound: Nc1ccn([C@@H]2O[C@H](CO)[C@@H](O)[C@@H]2O)c(=O)n1 [Cytarabine]; settings: top dose 2 µM
Procedure: as §1

KU-55933 = compound: O=c1cc(-c2cccc3c2Sc2ccccc2S3)oc(N2CCOCC2)c1 [KU-55933]; settings: top dose 10 µM
Procedure: as §1

[1] = top dose 2.5 µM, screen: GDSC drug entry 127
[2] = top dose 5 µM, screen: GDSC drug entry 1192
[3] = top dose 2.56 µM, screen: GDSC drug entry 154
[4] = top dose 10 µM, screen: GDSC drug entry 1241, top dose inferred

Row | Cell Line | AUC (Thapsigargin) | IC50 (Thapsigargin) [µM] | AUC (QL-X-138) | IC50 (QL-X-138) [µM] | AUC (GSK269962A; [1]) | IC50 (GSK269962A; [1]) [µM] | AUC (GSK269962A; [2]) | IC50 (GSK269962A; [2]) [µM] | AUC (MPS-1-IN-1) | IC50 (MPS-1-IN-1) [µM] | AUC ((5Z)-7-Oxozeaenol) | IC50 ((5Z)-7-Oxozeaenol) [µM] | AUC (CP466722) | IC50 (CP466722) [µM] | AUC (Zibotentan) | IC50 (Zibotentan) [µM] | AUC (ABT-888) | IC50 (ABT-888) [µM] | AUC (CMK) | IC50 (CMK) [µM] | AUC (ABT-869) | IC50 (ABT-869) [µM] | AUC (CHIR-99021; [3]) | IC50 (CHIR-99021; [3]) [µM] | AUC (CHIR-99021; [4]) | IC50 (CHIR-99021; [4]) [µM] | AUC (Cytarabine) | IC50 (Cytarabine) [µM] | AUC (KU-55933) | IC50 (KU-55933) [µM]
1 | NB(TU)1-10 (neuroblastoma, adherent) | 0.294 | 0.00926 | 0.976 | > 10.2 | 0.971 | > 2.5 | 0.992 | > 5 | 0.757 | 6.04 | 0.844 | 5.76 | 0.97 | > 16 | 0.993 | > 20 | 0.977 | > 5 | 0.939 | > 4 | 0.989 | > 1.02 | 0.972 | > 2.56 | 0.993 | > 10 | 0.993 | > 2 | 0.964 | > 10
2 | NB-4 (acute myeloid leukaemia, suspension) | 0.34 | 0.0126 | 0.535 | 0.782 | 0.984 | > 2.5 | 0.97 | > 5 | 0.736 | 5.05 | 0.472 | 0.533 | 0.636 | 2.2 | 0.99 | > 20 | 0.99 | > 5 | 0.845 | 2.14 | 0.988 | > 1.02 | 0.991 | > 2.56 | 0.991 | > 10 | 0.717 | – | 0.973 | > 10
3 | NCI-H69 (small cell lung carcinoma, suspension) | 0.606 | 0.065 | 0.683 | 2.21 | 0.926 | > 2.5 | 0.823 | 3.41 | 0.985 | > 20 | 0.752 | 3.65 | 0.785 | 7.67 | 0.986 | > 20 | 0.986 | > 5 | 0.971 | > 4 | 0.986 | > 1.02 | 0.986 | > 2.56 | 0.984 | > 10 | 0.985 | > 2 | 0.969 | > 10
4 | NCI-H187 (small cell lung carcinoma, suspension) | 0.553 | 0.0453 | 0.675 | 2.07 | 0.987 | > 2.5 | 0.97 | > 5 | 0.935 | > 20 | 0.957 | > 10 | 0.825 | 10.7 | 0.987 | > 20 | 0.988 | > 5 | 0.988 | > 4 | 0.983 | > 1.02 | 0.987 | > 2.56 | 0.987 | > 10 | 0.955 | > 2 | 0.979 | > 10
5 | NCI-H209 (small cell lung carcinoma, suspension) | 0.436 | 0.0212 | 0.595 | 1.19 | 0.915 | > 2.5 | 0.899 | > 5 | 0.876 | > 20 | 0.946 | > 10 | 0.74 | 5.15 | 0.979 | > 20 | 0.954 | > 5 | 0.986 | > 4 | 0.977 | > 1.02 | 0.984 | > 2.56 | 0.981 | > 10 | 0.818 | 1.23 | 0.944 | > 10
6 | NCI-H211 (small cell lung carcinoma, adherent) | 0.276 | 0.00757 | 0.545 | 0.848 | 0.842 | 1.69 | 0.924 | > 5 | 0.808 | 10 | 0.847 | 7.06 | 0.769 | 5.87 | 0.988 | > 20 | 0.985 | > 5 | 0.981 | > 4 | 0.969 | > 1.02 | 0.988 | > 2.56 | 0.987 | > 10 | 0.81 | 1.02 | 0.981 | > 10
7 | NCI-H226 (lung squamous cell carcinoma, adherent) | 0.314 | 0.00938 | 0.836 | 7.29 | 0.983 | > 2.5 | 0.866 | 4.87 | 0.787 | 9.16 | 0.796 | 4.95 | 0.799 | 8.1 | 0.986 | > 20 | 0.987 | > 5 | 0.855 | 3.44 | 0.987 | > 1.02 | 0.987 | > 2.56 | 0.893 | > 10 | 0.884 | > 2 | 0.987 | > 10
8 | NCI-H322M (lung adenocarcinoma, suspension) | 0.96 | > 0.512 | 0.824 | 8.05 | 0.98 | > 2.5 | 0.97 | > 5 | 0.924 | > 20 | 0.978 | > 10 | 0.852 | > 16 | 0.985 | > 20 | 0.983 | > 5 | 0.918 | > 4 | 0.985 | > 1.02 | 0.986 | > 2.56 | 0.983 | > 10 | 0.987 | > 2 | 0.937 | > 10
9 | NCI-H345 (small cell lung carcinoma, suspension) | 0.547 | 0.0433 | 0.869 | > 10.2 | 0.99 | > 2.5 | 0.96 | > 5 | 0.99 | > 20 | 0.954 | > 10 | 0.979 | > 16 | 0.99 | > 20 | 0.99 | > 5 | 0.93 | > 4 | 0.987 | > 1.02 | 0.99 | > 2.56 | 0.989 | > 10 | 0.984 | > 2 | 0.99 | > 10
10 | NCI-H446 (small cell lung carcinoma, semi-adherent) | 0.538 | 0.041 | 0.424 | 0.391 | 0.883 | > 2.5 | 0.846 | 4.04 | 0.882 | > 20 | 0.775 | 4.24 | 0.716 | 4.3 | 0.985 | > 20 | 0.986 | > 5 | 0.9 | > 4 | 0.985 | > 1.02 | 0.985 | > 2.56 | 0.984 | > 10 | 0.893 | > 2 | 0.985 | > 10
11 | NCI-H524 (small cell lung carcinoma, suspension) | 0.533 | 0.039 | 0.659 | 1.68 | 0.882 | 2.16 | 0.698 | 1.05 | 0.988 | > 20 | 0.748 | 2.93 | 0.75 | 4.75 | 0.989 | > 20 | 0.988 | > 5 | 0.952 | > 4 | 0.987 | > 1.02 | 0.989 | > 2.56 | 0.989 | > 10 | 0.985 | > 2 | 0.965 | > 10
12 | NCI-H720 (lung carcinoid, suspension) | 0.991 | > 0.512 | 0.992 | > 10.2 | 0.833 | 1.43 | 0.938 | > 5 | 0.992 | > 20 | 0.832 | 5.67 | 0.991 | > 16 | 0.992 | > 20 | 0.992 | > 5 | 0.926 | > 4 | 0.992 | > 1.02 | 0.991 | > 2.56 | 0.991 | > 10 | 0.981 | > 2 | 0.987 | > 10
13 | NCI-H747 (large intestine, adherent) | 0.594 | 0.0615 | 0.543 | 0.859 | 0.976 | > 2.5 | 0.941 | > 5 | 0.83 | 16.5 | 0.44 | 0.412 | 0.72 | 4.9 | 0.978 | > 20 | 0.98 | > 5 | 0.818 | 2.91 | 0.937 | > 1.02 | 0.954 | > 2.56 | 0.92 | > 10 | 0.838 | 1.81 | 0.978 | > 10
14 | NCI-H847 (small cell lung carcinoma, adherent) | 0.084 | < 0.002 | 0.449 | 0.477 | 0.879 | 1.75 | 0.618 | 0.617 | 0.78 | 6.66 | 0.808 | 4.02 | 0.828 | 7.41 | 0.992 | > 20 | 0.993 | > 5 | 0.898 | 3.33 | 0.963 | > 1.02 | 0.993 | > 2.56 | 0.897 | 8.21 | 0.993 | > 2 | 0.975 | > 10
15 | NCI-H1092 (small cell lung carcinoma, suspension) | 0.861 | 0.44 | 0.748 | 3.33 | 0.962 | > 2.5 | 0.987 | > 5 | 0.974 | > 20 | 0.942 | > 10 | 0.89 | > 16 | 0.984 | > 20 | 0.987 | > 5 | 0.972 | > 4 | 0.983 | > 1.02 | 0.99 | > 2.56 | 0.989 | > 10 | 0.99 | > 2 | 0.99 | > 10
16 | NCI-H1304 (small cell lung carcinoma, suspension) | 0.611 | 0.0664 | 0.833 | 7.33 | 0.919 | > 2.5 | 0.937 | > 5 | 0.988 | > 20 | 0.837 | 7.48 | 0.736 | 5 | 0.987 | > 20 | 0.987 | > 5 | 0.982 | > 4 | 0.987 | > 1.02 | 0.984 | > 2.56 | 0.944 | > 10 | 0.972 | > 2 | 0.959 | > 10
